Data published in ChEMBL document CHEMBL1201862, “PubChem BioAssay data set” (2004).

Each compound was assayed on NCI-H322M (assay: NCI-60 cell line screen, 48 h).
In the case of `Clc1ccccc1C(Nc1cnccn1)Nc1cnccn1`, the GI50 was inactive: > 100 µM. With `O=C1C=C(C2OC(CO)C(O)C2O)C(=O)N1` (configuration not stated) the GI50 was inactive: > 100 µM. In the case of `OC[C@@H](O)[C@H](O)[C@@H](O)/C=N/Nc1ccc(Cl)nn1`, the GI50 was inactive: > 100 µM. In the case of `ClCc1ccc2ccc3ccc(CCl)nc3c2n1`, the GI50 was inactive: 4.32 µM. `O=C1C(c2ccccc2)=C(O)c2cccc3cccc1c23` was tested, and the GI50 was inactive: > 100 µM. `CCN(CC)c1ccc2cc(C(=O)Nc3ccccc3OC)c(=N)oc2c1` was tested, and the GI50 was inactive: 19.6 µM. In the case of `CCO/N=C(/CC)c1ccc(Br)s1`, the GI50 was inactive: > 100 µM. For `O=C(NCCCN1CCN(CCCNC(=O)Nc2cccc3ccccc23)CC1)Nc1cccc2ccccc12`, the GI50 was inactive: 17.5 µM. `N#CCc1ccccc1/C(C#N)=C1/OC(=N)C(c2ccccc2CC#N)C1=O` (configuration not stated) was tested, and the GI50 was inactive: > 100 µM. In the case of `CC(NC(=O)OC(C)(C)C)C(=O)NC1CCCC1` (configuration not stated), the GI50 was inactive: > 100 µM. `CCOC(=O)c1ccc(NCC#CCN2CCCCC2)cc1` was tested, and the GI50 was inactive: > 100 µM. With `O=C(CCO)OCCCCCC/C=C\CCCCCC/C=C\CCCCCCCCOC(=O)CCO` the GI50 was inactive: 17.2 µM. For `C=C1C(=O)O[C@H]2C[C@@H]1C(=O)CC(C)CCCC(C)=CCC[C@@]2(C)O` (some centres not stated), the GI50 was inactive: > 25 µM. For `C[C@]12CC/C(=N\OCCN3CCCC3)C=C1CCC1C2CC[C@@]2(C)C1CC[C@]2(C)O` (some centres not stated), the GI50 was inactive: 9.23 µM. `COC(=O)/C=C1/OC(c2ccc(OC)cc2)=C(Cl)C1=O` was tested, and the GI50 was inactive: 21.9 µM. For `FC(F)(Sc1nc2ccccc2[nH]1)c1nc2ccccc2o1`, the GI50 was inactive: > 100 µM. With `C/N=c1\ss/c(=N\C(=S)N(C)C)n1-c1ccccc1` the GI50 was inactive: > 100 µM. With `O=[N+]([O-])C(=C(Nc1ccccc1)Nc1ccccc1)C(Cl)=C(Cl)Cl` the GI50 was inactive: 21 µM. For `O=C(O)CCC1c2[nH]c3ccccc3c2CCN1Cc1ccccc1` (configuration not stated), the GI50 was inactive: > 100 µM. In the case of `COC(=O)c1cc(-c2c[nH]cc2C(=O)OCc2ccccc2)cn1S(=O)(=O)c1ccc(C)cc1`, the GI50 was inactive: > 100 µM. With `c1coc(-c2nccc3c2[nH]c2ccccc23)c1` the GI50 was inactive: > 100 µM. With `O=C(O)C(/C=C/c1ccccc1)c1ccccc1` (configuration not stated) the GI50 was inactive: > 100 µM. For `C[C@@H](C1CC[C@H]2[C@@H]3[C@@H]4O[C@@H]4[C@@]4(O)CC=CC(=O)[C@]4(C)[C@H]3C[C@H](O)[C@]12C)[C@H]1C[C@]2(C)O[C@]2(C)C(=O)O1` (some centres not stated), the GI50 was inactive: > 100 µM. In the case of `O=c1c2ccc(Cl)cc2oc2c(CSc3ccccc3)cccc12`, the GI50 was inactive: > 85.3 µM. `O=C1CC23CCCCCCCCCCC2(C1)CC(=O)C3` (configuration not stated) was tested, and the GI50 was inactive: 41.4 µM. For `O=C1/C(=C/c2ccc3c(c2)OCO3)CCC1CN1CCOCC1` (configuration not stated), the GI50 was inactive: 16.5 µM. In the case of `CC1(C)CN(c2ccccc2)C(=O)C1OC(=O)[C@@]1(C)C[C@@H]2C=C[C@H]1C2` (some centres not stated), the GI50 was inactive: 35.1 µM. For `Cc1nc(-n2nc(-c3ccccc3)cc2-c2ccccc2)sc1C(=O)CC(=O)C(=O)Nc1ccc(Cl)c(Cl)c1`, the GI50 was inactive: > 10 µM. For `CN1CCC[N+](C)=C1c1ccccc1`, the GI50 was inactive: > 100 µM. For `COC(=O)[C@H](Cc1ccccc1)NP(=O)(O)OCC1C=CC(n2cc(C)c(=O)[nH]c2=O)O1` (some centres not stated), the GI50 was inactive: > 100 µM. For `O=C1/C(=C/C=C/c2ccccc2)N=C(c2ccccc2)N1c1ccc(S(=O)(=O)Nc2nccs2)cc1`, the GI50 was inactive: 45.2 µM. `O[C@]12CCCC[C@H]1CCC2` was tested, and the GI50 was inactive: > 100 µM. With `N=C(N)C(/N=N\c1ccccc1)C(N)=O` (configuration not stated) the GI50 was inactive: > 100 µM. `CCCCCCNC(=O)CCC(NC(=O)c1ccc(N(C)Cc2cnc3nc(N)nc(N)c3n2)cc1)C(=O)NCCCCCC` (configuration not stated) was tested, and the GI50 was inactive: > 100 µM. With `NCCCn1c2ccccc2c2c3c(c4c(c21)CCC(O)CC4)C(=O)NC3=O` (configuration not stated) the GI50 was inactive: 3.25 µM. In the case of `O=C1OC(c2ccc([N+](=O)[O-])cc2)=N/C1=C\c1ccc(Cl)cc1`, the GI50 was inactive: > 100 µM. With `NS(=O)(=O)c1ccc(/C=C/c2cccc(O)c2)cc1` the GI50 was inactive: > 100 µM.

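1) Cells in 96-well plates. 2) Compound, 48 h, 5 concentrations. 3) Linear interpolation between surrounding doses. 4) Unreached endpoint = highest concentration. At the GI50, growth is halved.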 Active and inactive are the calls of the source. Rule as the data show it: active = GI50 up to about 1.1 µM and inactive = higher.
